The campaign covered roughly 310,000 compounds. About 14,000 (4.5%) showed an effect of 50% or more. The effect is printed as a negative number. Some of the results follow.
Target: human ether-à-go-go-related gene (hERG) potassium channel (human, UniProt Q12809)
Experiment: primary screen, population patch clamp on CHO cells stably expressing hERG
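Note: peak tail current of the secondary pulse compared with the same well before compound.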

Sequence of human ether-à-go-go-related gene (hERG) potassium channel (Q12809 whole entry, looked up): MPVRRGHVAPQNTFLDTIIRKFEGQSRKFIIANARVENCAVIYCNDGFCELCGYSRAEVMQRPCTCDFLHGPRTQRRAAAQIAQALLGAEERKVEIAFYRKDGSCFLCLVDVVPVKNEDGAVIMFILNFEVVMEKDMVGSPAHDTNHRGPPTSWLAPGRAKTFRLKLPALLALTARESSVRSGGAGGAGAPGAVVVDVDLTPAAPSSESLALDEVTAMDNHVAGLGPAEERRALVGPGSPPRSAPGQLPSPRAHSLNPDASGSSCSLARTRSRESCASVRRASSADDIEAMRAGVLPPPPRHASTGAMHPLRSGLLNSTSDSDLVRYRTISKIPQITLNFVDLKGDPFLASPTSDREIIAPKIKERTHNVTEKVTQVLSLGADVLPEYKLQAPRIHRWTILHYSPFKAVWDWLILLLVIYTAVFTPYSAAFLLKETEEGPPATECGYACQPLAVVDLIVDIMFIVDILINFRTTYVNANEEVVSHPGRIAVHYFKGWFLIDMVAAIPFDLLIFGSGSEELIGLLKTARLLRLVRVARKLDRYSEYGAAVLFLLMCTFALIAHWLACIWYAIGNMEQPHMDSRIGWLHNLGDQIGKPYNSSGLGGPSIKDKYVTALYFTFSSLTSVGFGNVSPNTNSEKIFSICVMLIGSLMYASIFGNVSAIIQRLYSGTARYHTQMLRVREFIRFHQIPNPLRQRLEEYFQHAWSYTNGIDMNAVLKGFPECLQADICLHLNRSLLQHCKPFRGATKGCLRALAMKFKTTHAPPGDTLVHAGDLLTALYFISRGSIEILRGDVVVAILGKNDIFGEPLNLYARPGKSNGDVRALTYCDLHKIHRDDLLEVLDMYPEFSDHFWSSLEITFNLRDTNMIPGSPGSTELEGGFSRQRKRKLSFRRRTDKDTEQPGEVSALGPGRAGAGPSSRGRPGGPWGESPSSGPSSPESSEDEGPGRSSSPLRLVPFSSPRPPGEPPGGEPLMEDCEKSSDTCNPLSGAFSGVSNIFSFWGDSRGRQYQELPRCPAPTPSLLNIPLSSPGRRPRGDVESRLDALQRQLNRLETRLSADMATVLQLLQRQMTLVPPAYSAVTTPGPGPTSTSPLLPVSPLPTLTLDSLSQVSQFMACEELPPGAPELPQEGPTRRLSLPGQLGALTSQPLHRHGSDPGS

Row | SMILES | hERG current change (%, negative = inhibition) at 10uM
1 | COCCCNC(=S)NNC(=O)C(O)(c1ccccc1)c1ccccc1 | -2.56%
2 | CC1CCCC(NC(=O)COC(=O)[C@@H](NC(=O)c2ccco2)C(C)C)C1C (stereo partly shown) | -2.36%
3 | CC(=O)c1c(C(=O)O)c2ccccc2[nH]c1=O | 11.4%
4 | c1ccc2c(-c3c[nH]c4ccccc34)c3ccccc3nc2c1 | 19.3%
5 | Cc1ccc(CCNC(=O)c2ccc(CS(=O)(=O)Cc3ccccc3F)o2)cc1 | -18.2%
6 | Cc1ccc(C(C(=O)NC2CCCCC2)N(CC2CCCO2)C(=O)CNC(=O)c2cccs2)cc1 (stereo not shown) | -5.61%
7 | CSc1nc(O)c(C(c2ccc(C)cc2)c2c(O)nc(SC)[nH]c2=O)c(=O)[nH]1 | 6.48%
8 | CC(CS(=O)(=O)c1cccc2cccnc12)N1CCCCC1 (stereo not shown) | 11.8%
9 | CCOC(=O)c1ccc(N2CCOCC2)c(NC(=O)c2c(-c3ccccc3)noc2C)c1 | -20.3%
10 | O=C(O)C1CC(=O)N(CCc2ccc(F)cc2)C1 (stereo not shown) | -8.39%
11 | COc1ccc(CCNC(=O)CCOc2ccc(C)cc2)cc1OC | 12.4%
12 | CCOC(=O)c1cnc2ccccc2c1Nc1cccc(C(=O)O)c1.Cl | 15.3%
13 | COc1ccc(OC)c(NC(=O)CN(c2ccc(OC)c(Cl)c2)S(C)(=O)=O)c1 | -9.11%
14 | O=c1[nH]c(=O)n(CCc2ccccc2)c(O)c1C=NCCN1CCNCC1 | -6.04%
15 | CC(C)NC(=O)c1cc(-c2ccc3c(c2)OCO3)on1 | 7.72%
16 | Cc1ccc(C(=O)Nc2ccccc2C(=O)NC(Cc2c[nH]c3ccccc23)C(=O)O)cc1 (stereo not shown) | 15.8%
17 | COc1ccc(-c2cc(=O)c3cc(OC)c(OC)cc3[nH]2)cc1 | -5.83%
18 | COc1ccc(Br)cc1C(=O)NCc1cccnc1 | -19.2%
19 | Cc1ccc(S(=O)(=O)N2CCN(c3ccc(C(=O)N4CCOCC4)cc3[N+](=O)[O-])CC2)cc1 | -59%
20 | Cc1c(C=Nc2ccc(S(=O)(=O)N(C)C)cc2)c(O)[nH]c(=O)c1C#N | 15%
21 | O=C(CC1SC(=Nc2ccc(OC(F)F)cc2)N(CCN2CCOCC2)C1=O)Nc1ccc(F)cc1F (stereo not shown) | -82.9%
22 | CC(C)c1ccc(OCc2cccc(C(=O)N/N=C/c3cccnc3)c2)cc1 | -5.29%
23 | CCOc1ccccc1NC(=O)c1nc[nH]c1C(=O)Nc1ccccc1OCC | 16.2%
24 | NC(=O)C1CCN(C(=O)CCC(=O)N2CCOc3ccc(Cl)cc32)CC1 | 15.7%
25 | CCOC(=O)C(=O)Nc1sc(C(=O)N2CCOCC2)c(C)c1C#N | 17.1%
26 | O=c1[nH]c(/C=C/c2ccc([N+](=O)[O-])cc2)c([N+](=O)[O-])c(=O)[nH]1 | 12.7%
27 | Cc1ccc(CN2CCSc3ccc(C(=O)N4CCOCC4)cc32)cc1 | -23.2%
28 | Cc1cccc(-c2cc3nc4c(c(N5CCC6(CC5)OCCO6)n3n2)CCCC4)c1 | 10.2%

Row | SMILES | hERG current change (%, negative = inhibition) at 10uM
29 | CCn1cc(C(=O)NCC(C)C)c(=O)c2cc(F)c(N3CCN(C)CC3)cc21 | 3.11%
30 | CCOc1ccc(NC(=O)c2ccccc2NC(=O)CN2CCN(C(C)=O)CC2)cc1 | -3.2%
31 | CCSc1cc(C)nc2c(-c3ccccc3)cnn12 | 5.27%
32 | CCOc1cccc(C(=O)NC(=S)Nc2ccc(N3CCN(CC)CC3)cc2)c1 | -72.1%
33 | COc1ccccc1N/C=C/C(=C(C#N)C#N)N(C)C | 7.51%
34 | CC1CCCN(C(=O)CSc2nnc(-c3cccs3)o2)C1 (stereo not shown) | -17.3%
35 | COCCn1c(C)cc2c(c1=O)C(c1ccco1)C(C#N)=C(N)O2 (stereo not shown) | 12.7%
36 | CCCCn1c(O)c(C(C)=Nc2ccc3c(c2)CCC3)c(=O)[nH]c1=O | 7.52%
37 | NC(=O)CCC(NS(=O)(=O)c1ccc(Cl)cc1)C(=O)NCC1CCCCC1 (stereo not shown) | 16.8%
38 | CCOC(=O)N1CCN(C(=S)NC(=O)C2CCCC2)CC1 | -23.3%
39 | Cc1ccc(N2C(=O)Nc3ccc(Br)cc3C2(O)C(=O)NCCCN(C)C)cc1C (stereo not shown) | -5.79%
40 | COc1ccc(OC)c2sc(NC(=O)c3ccc(S(=O)(=O)N(C)C)cc3)nc12 | 13.4%
41 | O=C(Cn1nc(Cc2cccnc2)c2ccccc2c1=O)NCC1CCCO1 (stereo not shown) | 9.7%
42 | CCSc1nnc(NC(=O)CC)s1 | 6.42%
43 | COc1cc(NC(=O)CSCC(=O)Nc2cccc(C(F)(F)F)c2)c(Cl)cc1Cl | -2.94%
44 | CCOC(=O)C1CCN(C(=O)CSCCSCC(=O)N2CCC(C(=O)OCC)CC2)CC1 | -14.3%
45 | CCCNC(=O)C(Cc1cccc(Cl)c1)NC(=O)c1ccccc1 (stereo not shown) | 17.7%
46 | CCOc1cc(/C=C2/C(=N)N3N=C(CC)SC3=NC2=O)ccc1OC(=O)c1ccco1 | -23.8%
47 | Cc1nnc(SC(C)C(=O)NC2CCCc3ccccc32)n1-c1ccccc1 (stereo not shown) | -2.12%
48 | O=C(CN1C(=O)c2ccccc2S1(=O)=O)c1ccc(O)c(O)c1 | 8.63%
49 | CC(C)CC(C(=O)OCC(=O)c1c(N)n(C)c(=O)n(C)c1=O)N1C(=O)C2CC=CCC2C1=O (stereo not shown) | -7.6%
50 | O=S(=O)(c1ccccc1)N1CCN(C(=S)NCCc2ccccc2)CC1 | 1.62%
51 | COCc1cc(C)nc(SCC[N+](C)(C)CC(=O)Nc2cccc(C(F)(F)F)c2)c1C#N.[Cl-] | 13.5%
52 | CCC(C(=O)N1CCN(c2ccccc2OC)CC1)c1ccccc1 (stereo not shown) | 9.01%
53 | COC(=O)[C@H](CCSC)NC(=O)NC1CCN(Cc2ccccc2)CC1 | -12.9%
54 | COc1ccccc1NC(=O)CN1C(=O)C(C)SC(C)C1=O (stereo not shown) | 31.8%
55 | C1CN(c2nc3nonc3nc2N2C[C@H]3CC[C@H]2C3)CCS1 | 4.87%

Reference: publication PMC4336329 (PLoS ONE, 2015)
